Measured values from PubChem BioAssay AID2060487 (Molecular Pharmacology Branch, DTP, NCI, 2025).
The source holds more than one record for some entries. They are shown here; other results are not. An entry can have further records. Results that share an entry are repeats across runs, samples, wells, individuals or studies. Signs of the kind (2×) say how often a value occurs here.

Test system: 997537-175-T-J1-PDC complex spheroid viability
Assay: Anticancer human tumor 997537-175-T-J1-PDC patient-derived colon adenocarcinoma cell line growth inhibition [GQUAD]
Details: for IC50: compound alone; for viability, T/C: stronger effect = lower value
Excerpt: DNA G-quadruplex Stabilizer Agents in Combinations in Complex Spheroids
A high-throughput screen of multi-cell type tumor spheroids was designed to identify active combinations of DNA G-quadruplex stabilizer agents and targeted small molecules. Complex spheroids include a stromal component modeled by human endothelial cells (HUVEC) and fibroblasts modeled by human mesenchymal stem cells (MSCs). The concentration ranges selected for each drug and investigational agent were based upon clinically achievable concentrations if the clinical Cmax of the agent was known.
Compounds. The drugs and investigational agents: pidnarulex (CX-5461; NSC782164), APTO-253 (NSC789042), BRACO-19 (NSC847499), peposertib (NSC802822), ceralasertib (NSC780249), elimusertib (NSC800525), camonsertib (NSC841442), AZD-1390 (NSC803789), olaparib (NSC753686), talazoparib (NSC767125), ART-558 (NSC835418), sotorasib (NSC818433), MRTX-1133 (NSC836407), SN-38 (NSC673596), topotecan (NSC609699), etoposide (NSC141540), doxorubicin (NSC123127), gemcitabine (NSC613327), 5-fluorouracil (NSC19893), paclitaxel (NSC125973), vemurafenib (NSC761431), panobinostat (NSC761190), R-306465 (JNJ-16241199; NSC773264), adavosertib (NSC754352), TP-3654 (NSC805149), carboplatin (NSC241240), KSQ-4279 (NSC840948), and staurosporine (NSC755774) were obtained from the National Cancer Institute (NCI) Developmental Therapeutics Program Chemical Repository (34). The FDA-approved anticancer drug set is available from the NCI Developmental Therapeutics Program. […] The stock solutions were prepared in dimethyl sulfoxide (DMSO, Sigma-Aldrich, St. Louis, MO, cat. D2650) at 800-fold the tested concentration and stored at -70 degrees C prior to their use. All drugs and investigational agents were tested over a range starting from a high concentration at or near the clinical Cmax and decreasing in half-log increments. If the clinical Cmax for an agent had not been determined, the highest concentration tested was 10 microM.
2.3 Cell Culture. All cells were maintained in an incubator at 37 degrees C and 5% CO2 with 95% humidity. The PDC lines were cultured according to standard operating procedures established by the NCI PDMR. All PDCs were thawed and cultured in Matrigel-coated flasks prepared with a working solution of 1X Ham's F-12 nutrient mix, without supplementation (Invitrogen, cat. 11765054), 100 U/mL penicillin-streptomycin (Invitrogen, cat. 15140122), and 2.5% Matrigel (Corning Inc., cat. 354248) for the first three passages. The 857933-349-R-J2-PDC line was cultured in 6C/Colon 1B media, which includes advanced DMEM/F-12 (Thermo Fisher Scientific, cat. 12634028), 10 mM HEPES (Thermo Fisher Scientific, cat. 15630080), 1X GlutaMAX supplement (Thermo Fisher Scientific, cat. 35050061), 0.1 mg/mL primocin (InvivoGen, cat. ant-pm-2), 10% defined fetal bovine serum, heat inactivated (HyClone Laboratories Inc., cat. SH30070.03HI), 50% L-WRN conditioned media (ATCC, cat. CRL-3276), 1.25 mM N-Acetyl-L-cysteine (Sigma-Aldrich, cat. A9165), 10 mM nicotinamide (Sigma-Aldrich, cat. N0636), 1X B-27 supplement (Thermo Fisher Scientific, cat. 17504044), 1X N-2 supplement (Thermo Fisher Scientific, cat. 17502048), 10 microM Y-27632 dihydrochloride (Tocris Bioscience, cat. 1254), and 50 ng/mL human EGF recombinant protein (Thermo Fisher Scientific, cat. PHG0311). The 485176-168-R4-J1-PDC line was cultured in Panc media, which includes all 6C/Colon 1B media components plus 100 ng/mL human FGF-10 (Thermo Fisher Scientific, cat. 100-26), 500 nM SB-431542 (Selleckchem, cat. S1067), and gastrin (Tocris, cat. 3006).
[…]
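Note: spheroids exposed to the agents for 7 days.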
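Throughout, for viability, T/C: 100% = DMSO vehicle control viability.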

SMILES | IC50 | viability, T/C (compound alone 0.0316 µM) | viability, T/C (compound alone 1 µM) | viability, T/C (compound alone 10 µM) | viability, T/C (compound alone 0.1 µM) | viability, T/C (compound alone 3.16 µM)
CC(=O)O[C@H]1C(=O)[C@@]2(C)[C@H]([C@H](OC(=O)c3ccccc3)[C@]3(O)C[C@H](OC(=O)[C@H](O)[C@@H](NC(=O)c4ccccc4)c4ccccc4)C(C)=C1C3(C)C)[C@]1(OC(C)=O)CO[C@@H]1C[C@@H]2O | < 31.6 nM, 3.23 µM, 72.1 nM | – | – | – | – | –
Cc1[nH]c2ccc(F)cc2c1-c1nc2c3cccnc3c3ncccc3c2[nH]1 | – | 73.5, 95.8, 98.7, 92, 104 (2×), 85.3, 100, 96.7, 96.1, 97.5, 98.5% | 81.9, 94.9, 95.8, 96.4, 107, 113, 97.4, 92.3, 88.4, 92.5, 102, 96.7% | 72.9, 87.9, 81.7, 65.8, 85.3, 85, 71.7, 68.8, 92.9, 83.3, 82.9, 80.3% | – | –
O=C(NO)c1cnc(N2CCN(S(=O)(=O)c3ccc4ccccc4c3)CC2)nc1 | 1.73 µM, 57.6 nM, 1.86 µM | – | – | – | – | –
CN(C)c1ccc(Nc2c3ccc(NC(=O)CCN4CCCC4)cc3nc3cc(NC(=O)CCN4CCCC4)ccc23)cc1 | – | 103, 97.9, 93.2, 97.8, 89.5, 100, 107, 80.6, 96.9, 96.6, 89.3, 98.4% | 104 (2×), 100, 98.7, 94.5, 101, 79.7, 85.2, 105, 98.5, 107, 97.2% | 88.8, 98.3, 62.5, 80.7, 87.1, 85.1, 87.9, 85.2, 80.5, 76, 96.7, 94.3% | 99, 103, 101 (3×), 94.3, 97.8, 105, 74.1, 97.1, 106, 102% | 83.7, 99, 87.3, 78.1, 97.5, 88.1, 84.8, 88.4, 96.9, 91.3, 89.6, 104%
Cc1cnc(CNC(=O)c2c(=O)c3ccc(N4CCCN(C)CC4)nc3n3c2sc2ccccc23)cn1 | – | 106, 89.2, 97.7, 96, 95.5, 93.3, 88.2, 96.2, 81.9, 90.4, 81, 79.7% | – | – | – | 111, 93.2, 99.8, 109, 106, 86.8, 83.1, 95.8, 105, 113, 101, 95.2%
